Consider 1 molecule from patent publication US20200347138A1 (INDIAN INSTITUTE OF SCIENCE, published 2020).

The assay concerns the target T1, CR/FNII domain of canine DEC205, GST fusion protein (canine).
T1 construct: Expressed in E. coli BL21 from pGEX4T1, purified on GSH matrix as a 45 kDa GST fusion; exact limits of the insert are uncertain; also called canine CR/FNII; CR/FNII N-Terminal domain; not shown: glutathione S-transferase (GST) fusion partner from expression vector pGEX4T1
T1 chain: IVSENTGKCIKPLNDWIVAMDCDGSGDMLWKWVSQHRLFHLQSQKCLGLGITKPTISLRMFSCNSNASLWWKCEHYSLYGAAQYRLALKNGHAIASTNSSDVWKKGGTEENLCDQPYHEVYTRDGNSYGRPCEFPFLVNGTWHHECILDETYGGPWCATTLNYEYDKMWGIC
Nature of the assay: SPR, Biacore 2000, CR/FNII immobilised on CM5 chip, ScFv-CS as analyte. In general terms: Surface plasmon resonance follows binding to a sensor surface in real time, without labels.

The term Kd denotes a measure of binding affinity in units of concentration. Low readings indicate a tighter complex, high ones a looser complex.

B1: ScFv-CS 39 (yeast library ScFv 39 fused to Core Streptavidin) (scFv)
chain: ASQVQLQQSGPGLVRPSQTLSLTCDISGDSVSRDTAAWNWVRQSPWRGLEWLGRTYYRSEWKTDYAVSLKSRITINPDTSKSQFSLQLNSVTPEDTAVYYCARGWSGMDVWGQGTTVTVSAGSASAPTGILGSGGGGSGGGGSGGGGS[about 100 residues omitted here]ISFGQGTRLEIKSGILEQKLISEEDL[about 120 residues omitted here]
notes: domain: Core Streptavidin; The insert was PCR amplified from the yeast display vector, so flanking residues may differ from the entry; Purified on DEAE-Sephacel; not shown: histidine tag
Molecule B1 gave a Kd of 500 pM.
